Results taken from the supplement of paper PMC8728848.
The other results are listed elsewhere or left out.

Key:
Test in all cases: glycan array binding signal (z-score within array); higher = stronger binding
Settings in all cases: glycan notation: IUPAC condensed, linker removed
Fuc(a1-2)Gal = molecular target: Fuc(a1-2)Gal
Method in brief: (§1)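 The binding signal is a Z-score computed within each array and averaged over linkers. Arrays of the same protein sequence at different concentrations or buffers were also averaged together. Data originate from 3228 arrays in the Consortium for Functional Glycomics database, kept only where the protein sequence was available.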

Fuc(a1-2)Gal(b1-3)GalNAc = molecular target: Fuc(a1-2)Gal(b1-3)GalNAc
Method in brief: as §1

[1] = molecular target: Fuc(a1-2)Gal(b1-3)GalNAc(a1-3)[Fuc(a1-2)]Gal(b1-4)Glc
Method in brief: as §1

[2] = molecular target: Fuc(a1-2)Gal(b1-3)GalNAc(a1-3)[Fuc(a1-2)]Gal(b1-4)GlcNAc
Method in brief: as §1

[3] = molecular target: Fuc(a1-2)Gal(b1-3)GalNAc(b1-3)Gal
Method in brief: as §1

[4] = molecular target: Fuc(a1-2)Gal(b1-3)GalNAc(b1-3)Gal(a1-4)Gal(b1-4)Glc
Method in brief: as §1

[5] = molecular target: Fuc(a1-2)Gal(b1-3)GalNAc(b1-4)[Neu5Ac(a2-3)]Gal(b1-4)Glc
Method in brief: as §1

Fuc(a1-2)Gal(b1-3)GlcNAc = molecular target: Fuc(a1-2)Gal(b1-3)GlcNAc
Method in brief: as §1

[6] = molecular target: Fuc(a1-2)Gal(b1-3)GlcNAc(b1-2)Man(a1-3)[Fuc(a1-2)Gal(b1-3)GlcNAc(b1-2)Man(a1-6)]Man(b1-4)GlcNAc(b1-4)GlcNAc
Method in brief: as §1

[7] = molecular target: Fuc(a1-2)Gal(b1-3)GlcNAc(b1-3)Gal(b1-4)Glc
Method in brief: as §1

[8] = molecular target: Fuc(a1-2)Gal(b1-3)GlcNAc(b1-3)[Fuc(a1-3)[Gal(b1-4)]GlcNAc(b1-6)]Gal(b1-4)Glc
Method in brief: as §1

[9] = molecular target: Fuc(a1-2)Gal(b1-3)[Fuc(a1-4)]GlcNAc
Method in brief: as §1

[10] = molecular target: Fuc(a1-2)Gal(b1-3)[Fuc(a1-4)]GlcNAc(b1-2)Man(a1-3)[Fuc(a1-2)Gal(b1-3)[Fuc(a1-4)]GlcNAc(b1-2)Man(a1-6)]Man(b1-4)GlcNAc(b1-4)GlcNAc
Method in brief: as §1

[11] = molecular target: Fuc(a1-2)Gal(b1-3)[Fuc(a1-4)]GlcNAc(b1-3)[Fuc(a1-3)[Gal(b1-4)]GlcNAc(b1-6)]Gal(b1-4)Glc
Method in brief: as §1

[12] = molecular target: Fuc(a1-2)Gal(b1-3)[Fuc(a1-4)]GlcNAc(b1-3)[Gal(b1-4)GlcNAc(b1-6)]Gal(b1-4)Glc
Method in brief: as §1

Fuc(a1-2)Gal(b1-4)Glc = molecular target: Fuc(a1-2)Gal(b1-4)Glc
Method in brief: as §1

Fuc(a1-2)Gal(b1-4)Glc6S = molecular target: Fuc(a1-2)Gal(b1-4)Glc6S
Method in brief: as §1

Fuc(a1-2)Gal(b1-4)GlcNAc = molecular target: Fuc(a1-2)Gal(b1-4)GlcNAc
Method in brief: as §1

[13] = molecular target: Fuc(a1-2)Gal(b1-4)GlcNAc(b1-2)Man(a1-3)[Fuc(a1-2)Gal(b1-4)GlcNAc(b1-2)Man(a1-6)]Man(b1-4)GlcNAc(b1-4)GlcNAc
Method in brief: as §1

[14] = molecular target: Fuc(a1-2)Gal(b1-4)GlcNAc(b1-3)Gal(b1-4)GlcNAc
Method in brief: as §1

[15] = molecular target: Fuc(a1-2)Gal(b1-4)GlcNAc(b1-3)Gal(b1-4)GlcNAc(b1-3)Gal(b1-4)GlcNAc
Method in brief: as §1

[16] = molecular target: Fuc(a1-2)Gal(b1-4)GlcNAc(b1-3)GalNAc
Method in brief: as §1

[17] = molecular target: Fuc(a1-2)Gal(b1-4)GlcNAc6S
Method in brief: as §1

[18] = molecular target: Fuc(a1-2)Gal(b1-4)[Fuc(a1-3)]GlcNAc
Method in brief: as §1

[19] = molecular target: Fuc(a1-2)Gal(b1-4)[Fuc(a1-3)]GlcNAc(b1-2)Man(a1-3)[Fuc(a1-2)Gal(b1-4)[Fuc(a1-3)]GlcNAc(b1-2)Man(a1-6)]Man(b1-4)GlcNAc(b1-4)GlcNAc
Method in brief: as §1

[20] = molecular target: Fuc(a1-2)Gal(b1-4)[Fuc(a1-3)]GlcNAc(b1-3)Gal(b1-4)[Fuc(a1-3)]GlcNAc
Method in brief: as §1

[21] = molecular target: Fuc(a1-2)Gal(b1-4)[Fuc(a1-3)]GlcNAc(b1-3)Gal(b1-4)[Fuc(a1-3)]GlcNAc(b1-3)Gal(b1-4)[Fuc(a1-3)]GlcNAc
Method in brief: as §1

Fuc(a1-2)Gal6S(b1-4)Glc = molecular target: Fuc(a1-2)Gal6S(b1-4)Glc
Method in brief: as §1

[22] = molecular target: Fuc(a1-2)Gal6S(b1-4)Glc6S
Method in brief: as §1

[23] = molecular target: Fuc(a1-2)Gal6S(b1-4)GlcNAc
Method in brief: as §1

B1: SLP (Clostridium difficile), Q183M8 (protein)
chain: MATTGTQGYTVVKNDWKKAVKQLQDGLKDNSIGKITVSFNDGVVGEVAPKSANKKADRDAAAEKLYNLVNTQLDKLGDGDYVDFSVDYNLENKIITNQADAEAIVTKLNSLNEKTLIDIATKDTFGMVSKTQDSEGKNVAATKALKVKDVATFGLKSGGSEDTGYVVEMKAGAVEDKYGKVGDSTAGIAINLPSTGLEYAGKGTTIDFNKTLKVDVTGGSTPSAVAVSGFVTKDDTDLAKSGTINVRVINAKEESIDIDASSYTSAENLAKRYVFDPDEISEAYKAIVALQNDGIESNLVQLVNGKYQVIFYPEGKRLETKSLEHHHHHH
glycan array binding signal (z-score) (Fuc(a1-2)Gal): -0.17 | glycan array binding signal (z-score) (Fuc(a1-2)Gal(b1-3)GalNAc): -0.184 | glycan array binding signal (z-score) [1]: -0.202 | glycan array binding signal (z-score) [2]: -0.187 | glycan array binding signal (z-score) [3]: 1.35 | glycan array binding signal (z-score) [4]: -0.199 | glycan array binding signal (z-score) [5]: -0.17 | glycan array binding signal (z-score) (Fuc(a1-2)Gal(b1-3)GlcNAc): -0.17 | glycan array binding signal (z-score) [6]: 0.556 | glycan array binding signal (z-score) [7]: 3.53 | glycan array binding signal (z-score) [8]: -0.163 | glycan array binding signal (z-score) [9]: -0.18 | glycan array binding signal (z-score) [10]: 0.054 | glycan array binding signal (z-score) [11]: -0.158 | glycan array binding signal (z-score) [12]: -0.156 | glycan array binding signal (z-score) (Fuc(a1-2)Gal(b1-4)Glc): -0.174 | glycan array binding signal (z-score) (Fuc(a1-2)Gal(b1-4)Glc6S): -0.166 | glycan array binding signal (z-score) (Fuc(a1-2)Gal(b1-4)GlcNAc): -0.198 | glycan array binding signal (z-score) [13]: 3.46 | glycan array binding signal (z-score) [14]: -0.199 | glycan array binding signal (z-score) [15]: -0.176 | glycan array binding signal (z-score) [16]: -0.149 | glycan array binding signal (z-score) [17]: -0.199 | glycan array binding signal (z-score) [18]: -0.174 | glycan array binding signal (z-score) [19]: 0.044 | glycan array binding signal (z-score) [20]: -0.135 | glycan array binding signal (z-score) [21]: -0.112 | glycan array binding signal (z-score) (Fuc(a1-2)Gal6S(b1-4)Glc): -0.165 | glycan array binding signal (z-score) [22]: -0.069 | glycan array binding signal (z-score) [23]: -0.207
